Measured values as given in the supplement of paper PMC4967469.
Lines with a small IC50 respond at low doses; where the fit passes the top or lowest dose, that dose stands as a limit. The AUC spans the tested range (256-fold, ending at the top dose) of the same fit; the more sensitive the line, the further below 1. For some assays here: An inferred top dose was calculated from the reported fits. For some assays here: An entry number marks a drug with two screens in the source, which often give different values.

What was measured:
Assay in all cases: Viability of human cancer cell lines after 72 h of drug (GDSC screen)
[1] = compound: COc1cc2c(Nc3ccc(NC(=O)c4ccccc4)cc3)ncnc2cc1OCCCN1CCOCC1 [ZM-447439]; settings: top dose inferred
Experimental: (§1)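 Human cancer cell lines in 384-well plates, medium with 10% serum, drug for 72 h over a 256-fold dose range (nine 2-fold or five 4-fold steps up to the top dose). Adherent lines were fixed and stained with the nucleic acid dye Syto60, suspension lines read with resazurin; signal relative to control wells, capped at 0 and 100%. One two-parameter sigmoid per drug and line, fitted in a mixed model over all curves with the slope shared within a line.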

[2] = compound: N#CC(c1ccnc(NCCc2cccnc2)n1)c1nc2ccccc2s1 [AS601245]; settings: top dose 8 µM; top dose inferred
Experimental: as §1

[3] = compound: Nc1ccc(C(=O)Nc2cccc(-c3nc(N4CCOCC4)c4oc5ncccc5c4n3)c2)cn1 [YM201636]; settings: top dose 5.12 µM; top dose inferred
Experimental: as §1

[4] = compound: Cn1cnc2c(F)c(Nc3ccc(Br)cc3Cl)c(C(=O)NOCCO)cc21 [AZD6244]; settings: top dose 4 µM; screen: GDSC drug entry 1498; top dose inferred
Experimental: as §1

[5] = compound: NC(=O)C1CCCc2c1[nH]c1ccc(Cl)cc21 [EX-527]; settings: top dose 20 µM
Experimental: as §1

Cell Line	AUC [1]	IC50 [1] [µM]	AUC [2]	IC50 [2] [µM]	AUC [3]	IC50 [3] [µM]	AUC [4]	IC50 [4] [µM]	AUC [5]	IC50 [5] [µM]
A172 (glioma, adherent, top dose 2 µM)	0.82	1.1								
D-336MG (glioma, adherent, top dose 2 µM)	0.934	> 2								
K5 (thyroid, adherent, top dose 2 µM)	0.978	> 2								
KYM-1 (rhabdomyosarcoma, adherent, top dose 2 µM)	0.991	> 2								
LCLC-103H (large cell lung carcinoma, adherent, top dose 2 µM)	0.965	> 2								
LU-65 (large cell lung carcinoma, suspension, top dose 4 µM)	0.987	> 4								
MFE-319 (endometrium, adherent, top dose 2 µM)	0.906	> 2								
TT2609-C02 (thyroid, adherent)			0.763	3.07	0.86	4.77	0.896	> 4	0.984	> 20
TT (thyroid, adherent)			0.93	> 8	0.96	> 5.12	0.967	> 4	0.978	> 20
TYK-nu (ovary, adherent)			0.662	1.46	0.881	> 5.12	0.743	1.31	0.966	> 20
U031 (kidney, adherent)			0.862	7.3	0.884	> 5.12	0.785	1.77	0.985	> 20
U251 (glioma, adherent)			0.91	> 8	0.927	> 5.12	0.799	1.81	0.987	> 20
U-118-MG (glioma, adherent)			0.956	> 8	0.915	> 5.12	0.868	> 4	0.984	> 20
UACC-62 (melanoma, adherent)			0.987	> 8	0.983	> 5.12	0.359	0.102	0.984	> 20
UACC-893 (breast, adherent)			0.948	> 8	0.888	> 5.12	0.933	> 4	0.983	> 20
UM-UC-3 (bladder, adherent)			0.872	6.84	0.779	1.96	0.9	> 4	0.98	> 20
UMC-11 (lung carcinoid, adherent)			0.965	> 8	0.88	4.33	0.985	> 4	0.98	> 20
VM-CUB-1 (bladder, adherent)			0.978	> 8	0.989	> 5.12	0.923	> 4	0.981	> 20
VMRC-MELG (melanoma, adherent)			0.888	> 8	0.979	> 5.12	0.943	> 4	0.974	> 20
VMRC-RCZ (kidney, adherent)			0.874	> 8	0.93	> 5.12	0.901	> 4	0.976	> 20
WM35 (melanoma, adherent)			0.827	4.94	0.814	2.82	0.326	0.0813	0.977	> 20
WM278 (melanoma, adherent)			0.865	> 8	0.75	1.86	0.548	0.344	0.975	> 20
WM793B (melanoma, adherent)			0.759	3.08	0.905	> 5.12	0.803	2.25	0.972	> 20
WM1552C (melanoma, adherent)			0.816	4.48	0.986	> 5.12	0.771	1.54	0.981	> 20
WM-115 (melanoma, adherent)			0.907	> 8	0.615	0.713	0.706	1.1	0.972	> 20
YAPC (pancreas, adherent)			0.985	> 8	0.968	> 5.12	0.886	> 4	0.985	> 20
YKG-1 (glioma, adherent)			0.729	2.26	0.965	> 5.12	0.902	> 4	0.976	> 20
huH-1 (liver, adherent)			0.98	> 8	0.984	> 5.12	0.923	> 4	0.978	> 20
